Test results published in the supplement of paper PMC10369915.
This is one part of the list. No stated cut-off is given here; in the data, active = 3.2 or more and inactive = the rest. Most of these values are background signal.

Tests used:
Test in all cases: enrichment score (SH2-bound / input frequency) (ratio); bacterial display of known human phosphotyrosine sites (pTyr-Var adds point mutants) read by sequencing; higher = stronger binding; tyrosines were phosphorylated by kinases first
Settings in all cases: peptide library: pTyr-Var
SHP2 C-SH2 domain E139D = molecular target: SHP2 C-SH2 domain E139D
[1] = molecular target: SHP2 C-SH2 domain wild-type
SHP2 N-SH2 domain L43F = molecular target: SHP2 N-SH2 domain L43F
SHP2 N-SH2 domain T42A = molecular target: SHP2 N-SH2 domain T42A
SHP2 N-SH2 domain T52S = molecular target: SHP2 N-SH2 domain T52S
[2] = molecular target: SHP2 N-SH2 domain wild-type

Measured: enrichment score
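Further: displayed peptides selected on beads carrying the immobilized SH2 domain, with library peptides lacking any tyrosine serving as negative controls.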

B1: AICDA_Y146_F151S_YF (peptide)
chain: FKDFFYCWNTS
inactive: SHP2 C-SH2 domain E139D 1.05 | [1] 1.44 | SHP2 N-SH2 domain L43F 1.31 | SHP2 N-SH2 domain T42A 0.984 | SHP2 N-SH2 domain T52S 1.01 | [2] 1.59

B2: AIPL1_Y268 (peptide)
chain: IVKAYYVRARA
inactive: SHP2 C-SH2 domain E139D 0.391 | [1] 0.344 | SHP2 N-SH2 domain L43F 0.451 | SHP2 N-SH2 domain T42A 0.361 | SHP2 N-SH2 domain T52S 0.387 | [2] 0.368

B3: AKAP4_Y554_T557I (peptide)
chain: LKLIQYHLIQQ
active: SHP2 C-SH2 domain E139D 3.83 | [1] 4.35 | SHP2 N-SH2 domain L43F 5.8 | SHP2 N-SH2 domain T42A 4.05 | SHP2 N-SH2 domain T52S 5.99 | [2] 3.58

B4: ADGRL4_Y302_V300L (peptide)
chain: VAFLYYKSIGP
inactive: SHP2 C-SH2 domain E139D 0.571 | [1] 0.655 | SHP2 N-SH2 domain L43F 0.585 | SHP2 N-SH2 domain T42A 0.574 | SHP2 N-SH2 domain T52S 0.544 | [2] 1.17

B5: AIPL1_Y267_YF (peptide)
chain: GIVKAYFVRAR
inactive: SHP2 C-SH2 domain E139D 0.43 | [1] 0.368 | SHP2 N-SH2 domain L43F 0.293 | SHP2 N-SH2 domain T42A 0.344 | SHP2 N-SH2 domain T52S 0.435 | [2] 0.27

B6: AKAP9_Y2482 (peptide)
chain: LENQTYFKSFE
inactive: SHP2 C-SH2 domain E139D 1.07 | [1] 1.07 | SHP2 N-SH2 domain L43F 0.754 | SHP2 N-SH2 domain T42A 0.607 | SHP2 N-SH2 domain T52S 0.992 | [2] 1.03

B7: AIPL1_Y267 (peptide)
chain: GIVKAYYVRAR
inactive: SHP2 C-SH2 domain E139D 0.294 | [1] 0.279 | SHP2 N-SH2 domain L43F 0.309 | SHP2 N-SH2 domain T42A 0.276 | SHP2 N-SH2 domain T52S 0.364 | [2] 0.293

B8: ADGRD1_Y85_T82M_YF (peptide)
chain: GVMLLYFGRFN
inactive: SHP2 C-SH2 domain E139D 1.64 | [1] 1.04 | SHP2 N-SH2 domain L43F 1.54 | SHP2 N-SH2 domain T42A 1.64 | SHP2 N-SH2 domain T52S 1.78 | [2] 1.19

B9: ADPRS_Y75 (peptide)
chain: TEALYYTDDTA
inactive: SHP2 C-SH2 domain E139D 0.618 | [1] 1.02 | SHP2 N-SH2 domain L43F 0.883 | SHP2 N-SH2 domain T42A 0.879 | SHP2 N-SH2 domain T52S 0.459 | [2] 0.963

B10: AHSG_Y314 (peptide)
chain: LHRAHYDLRHT
inactive: [1] 3.17 | [2] 2.83
active: SHP2 C-SH2 domain E139D 3.77 | SHP2 N-SH2 domain L43F 3.72 | SHP2 N-SH2 domain T42A 3.87 | SHP2 N-SH2 domain T52S 3.38

B11: ADGRD1_Y85_Y85C (peptide)
chain: GVTLLCYGRYN
inactive: SHP2 C-SH2 domain E139D 0.748 | [1] 0.812 | SHP2 N-SH2 domain L43F 0.722 | SHP2 N-SH2 domain T42A 0.878 | SHP2 N-SH2 domain T52S 0.559 | [2] 1.15

B12: AHCY_Y143_Y143C (peptide)
chain: LIHTKCPQLLP
inactive: SHP2 C-SH2 domain E139D 1.26 | [1] 1.29 | SHP2 N-SH2 domain L43F 1.23 | SHP2 N-SH2 domain T42A 1.1 | SHP2 N-SH2 domain T52S 1.17 | [2] 1.14

B13: ADPRS_Y75_T79P (peptide)
chain: TEALYYTDDPA
inactive: SHP2 C-SH2 domain E139D 1.01 | [1] 0.552 | SHP2 N-SH2 domain L43F 0.838 | SHP2 N-SH2 domain T42A 0.907 | SHP2 N-SH2 domain T52S 1.5 | [2] 0.718

B14: AKR1C2_Y81_I79V (peptide)
chain: REDVFYTSKLW
inactive: SHP2 C-SH2 domain E139D 1.15 | [1] 0.759 | SHP2 N-SH2 domain L43F 0.785 | SHP2 N-SH2 domain T42A 1.57 | SHP2 N-SH2 domain T52S 0.938 | [2] 0.928

B15: AKT1_Y437 (peptide)
chain: ETDTRYFDEEF
inactive: SHP2 C-SH2 domain E139D 0.571 | [1] 0.623 | SHP2 N-SH2 domain L43F 0.493 | SHP2 N-SH2 domain T42A 0.462 | SHP2 N-SH2 domain T52S 0.522 | [2] 0.606

B16: AKR1B10_Y316_N313D (peptide)
chain: PFDAEYGGGGG
inactive: SHP2 C-SH2 domain E139D 0.554 | [1] 0.523 | SHP2 N-SH2 domain L43F 0.62 | SHP2 N-SH2 domain T42A 0.692 | SHP2 N-SH2 domain T52S 0.588 | [2] 0.909

B17: AGXT_Y194 (peptide)
chain: GGTPLYMDRQG
inactive: SHP2 C-SH2 domain E139D 0.765 | [1] 0.701 | SHP2 N-SH2 domain L43F 0.783 | SHP2 N-SH2 domain T42A 0.587 | SHP2 N-SH2 domain T52S 0.788 | [2] 0.816

B18: ADGRL4_Y301_V300L_YF (peptide)
chain: AVAFLYFKSIG
inactive: SHP2 C-SH2 domain E139D 1.24 | [1] 1.38 | SHP2 N-SH2 domain L43F 1.44 | SHP2 N-SH2 domain T42A 1.25 | SHP2 N-SH2 domain T52S 1.02 | [2] 1.76

B19: AKT3_Y173_G171R (peptide)
chain: KASRKYYAMKI
inactive: SHP2 C-SH2 domain E139D 0.619 | [1] 0.715 | SHP2 N-SH2 domain L43F 0.511 | SHP2 N-SH2 domain T42A 0.654 | SHP2 N-SH2 domain T52S 0.528 | [2] 0.795

B20: AHNAK_Y964 (peptide)
chain: KVKGEYDMTVP
inactive: SHP2 C-SH2 domain E139D 0.957 | [1] 0.442 | SHP2 N-SH2 domain L43F 0.739 | SHP2 N-SH2 domain T42A 0.678 | SHP2 N-SH2 domain T52S 0.783 | [2] 0.832

B21: AKT3_Y174_YF (peptide)
chain: ASGKFYAMKIL
inactive: SHP2 C-SH2 domain E139D 1.06 | [1] 1.1 | SHP2 N-SH2 domain L43F 0.958 | SHP2 N-SH2 domain T42A 1.03 | SHP2 N-SH2 domain T52S 1.01 | [2] 1.22

B22: AIFM1_Y347_L344F (peptide)
chain: KIFPEYLSNWT
inactive: SHP2 C-SH2 domain E139D 1.27 | [1] 1.14 | SHP2 N-SH2 domain L43F 1.13 | SHP2 N-SH2 domain T42A 1.46 | SHP2 N-SH2 domain T52S 1.31 | [2] 1.18

B23: AICDA_Y146 (peptide)
chain: FKDYFYCWNTF
inactive: SHP2 C-SH2 domain E139D 1.14 | [1] 1.52 | SHP2 N-SH2 domain L43F 0.999 | SHP2 N-SH2 domain T42A 0.912 | SHP2 N-SH2 domain T52S 1.04 | [2] 1.29

B24: AGXT_Y297 (peptide)
chain: REAAAYLHGRL
inactive: SHP2 C-SH2 domain E139D 0.931 | [1] 1.01 | SHP2 N-SH2 domain L43F 0.835 | SHP2 N-SH2 domain T42A 0.849 | SHP2 N-SH2 domain T52S 0.74 | [2] 0.875

B25: ADM_Y52_S50R (peptide)
chain: RMSRSYPTGLA
inactive: SHP2 C-SH2 domain E139D 0.444 | [1] 0.586 | SHP2 N-SH2 domain L43F 1.19 | SHP2 N-SH2 domain T42A 0.533 | SHP2 N-SH2 domain T52S 0.544 | [2] 0.53

B26: ADGRD1_Y85_Y89D_YF (peptide)
chain: GVTLLYFGRDN
active: SHP2 C-SH2 domain E139D 3.34 | [2] 3.29
inactive: [1] 3.13 | SHP2 N-SH2 domain L43F 3.12 | SHP2 N-SH2 domain T42A 2.58 | SHP2 N-SH2 domain T52S 2.89

B27: AIPL1_Y268_R270H (peptide)
chain: IVKAYYVHARA
inactive: SHP2 C-SH2 domain E139D 2.24 | [1] 2.2 | SHP2 N-SH2 domain L43F 1.78 | SHP2 N-SH2 domain T42A 1.77 | SHP2 N-SH2 domain T52S 2.09 | [2] 1.92

B28: ADGRL4_Y302_V300L_YF (peptide)
chain: VAFLFYKSIGP
inactive: SHP2 C-SH2 domain E139D 1.02 | [1] 1.55 | SHP2 N-SH2 domain L43F 1.25 | SHP2 N-SH2 domain T42A 1.36 | SHP2 N-SH2 domain T52S 1.7 | [2] 2.3

B29: AKR1C2_Y305_N300T (peptide)
chain: TRNVRYLTLDI
inactive: SHP2 C-SH2 domain E139D 1.24 | [1] 2.6
active: SHP2 N-SH2 domain L43F 9.03 | SHP2 N-SH2 domain T42A 21.5 | SHP2 N-SH2 domain T52S 11.5 | [2] 3.56

B30: AK7_Y390_YF (peptide)
chain: KELANYFKLHH
inactive: SHP2 C-SH2 domain E139D 1.42 | [1] 1.16 | SHP2 N-SH2 domain L43F 0.889 | SHP2 N-SH2 domain T42A 1.13 | SHP2 N-SH2 domain T52S 1.16 | [2] 1.15

B31: AFG3L2_Y614 (peptide)
chain: LPKEQYLYTKE
inactive: SHP2 C-SH2 domain E139D 1.22 | [1] 0.915 | SHP2 N-SH2 domain L43F 0.969 | SHP2 N-SH2 domain T42A 0.79 | SHP2 N-SH2 domain T52S 0.81 | [2] 1.55

B32: AGXT_Y231_R233C (peptide)
chain: AKKKMYSCKTK
inactive: SHP2 C-SH2 domain E139D 2.32 | [1] 2.49 | SHP2 N-SH2 domain L43F 2.36 | SHP2 N-SH2 domain T42A 1.65 | SHP2 N-SH2 domain T52S 2.2 | [2] 1.81

B33: ADGRG7_Y760 (peptide)
chain: LRVKMYNFLRS
inactive: SHP2 C-SH2 domain E139D 1.52 | [1] 0.894 | SHP2 N-SH2 domain L43F 1.28 | SHP2 N-SH2 domain T42A 1.25 | SHP2 N-SH2 domain T52S 1.11 | [2] 1.09

B34: ADGRE1_Y534_I539V (peptide)
chain: SDPIIYTLENV
inactive: SHP2 C-SH2 domain E139D 0.697 | [1] 0.681 | SHP2 N-SH2 domain L43F 0.848 | SHP2 N-SH2 domain T42A 0.713 | SHP2 N-SH2 domain T52S 0.792 | [2] 0.92

B35: AKR1B10_Y310_N313D (peptide)
chain: SHLEDYPFDAE
inactive: SHP2 C-SH2 domain E139D 0.542 | [1] 0.647 | SHP2 N-SH2 domain L43F 0.492 | SHP2 N-SH2 domain T42A 0.539 | SHP2 N-SH2 domain T52S 0.616 | [2] 0.59

B36: AGXT_Y231 (peptide)
chain: AKKKMYSRKTK
inactive: SHP2 C-SH2 domain E139D 0.344 | [1] 0.282 | SHP2 N-SH2 domain L43F 0.293 | SHP2 N-SH2 domain T42A 0.343 | SHP2 N-SH2 domain T52S 0.193 | [2] 0.276

B37: ADGRD1_Y85_Y85C_YF (peptide)
chain: GVTLLCFGRFN
inactive: SHP2 C-SH2 domain E139D 1.34 | [1] 1.36 | SHP2 N-SH2 domain L43F 1.02 | SHP2 N-SH2 domain T42A 0.913 | SHP2 N-SH2 domain T52S 1.08 | [2] 1.12
